Drawing on paper PMC3492431, this text covers binding for four molecules.

By UniProt entry, the sequences of proteins in these tests, tags left out.
UniProt Q62261: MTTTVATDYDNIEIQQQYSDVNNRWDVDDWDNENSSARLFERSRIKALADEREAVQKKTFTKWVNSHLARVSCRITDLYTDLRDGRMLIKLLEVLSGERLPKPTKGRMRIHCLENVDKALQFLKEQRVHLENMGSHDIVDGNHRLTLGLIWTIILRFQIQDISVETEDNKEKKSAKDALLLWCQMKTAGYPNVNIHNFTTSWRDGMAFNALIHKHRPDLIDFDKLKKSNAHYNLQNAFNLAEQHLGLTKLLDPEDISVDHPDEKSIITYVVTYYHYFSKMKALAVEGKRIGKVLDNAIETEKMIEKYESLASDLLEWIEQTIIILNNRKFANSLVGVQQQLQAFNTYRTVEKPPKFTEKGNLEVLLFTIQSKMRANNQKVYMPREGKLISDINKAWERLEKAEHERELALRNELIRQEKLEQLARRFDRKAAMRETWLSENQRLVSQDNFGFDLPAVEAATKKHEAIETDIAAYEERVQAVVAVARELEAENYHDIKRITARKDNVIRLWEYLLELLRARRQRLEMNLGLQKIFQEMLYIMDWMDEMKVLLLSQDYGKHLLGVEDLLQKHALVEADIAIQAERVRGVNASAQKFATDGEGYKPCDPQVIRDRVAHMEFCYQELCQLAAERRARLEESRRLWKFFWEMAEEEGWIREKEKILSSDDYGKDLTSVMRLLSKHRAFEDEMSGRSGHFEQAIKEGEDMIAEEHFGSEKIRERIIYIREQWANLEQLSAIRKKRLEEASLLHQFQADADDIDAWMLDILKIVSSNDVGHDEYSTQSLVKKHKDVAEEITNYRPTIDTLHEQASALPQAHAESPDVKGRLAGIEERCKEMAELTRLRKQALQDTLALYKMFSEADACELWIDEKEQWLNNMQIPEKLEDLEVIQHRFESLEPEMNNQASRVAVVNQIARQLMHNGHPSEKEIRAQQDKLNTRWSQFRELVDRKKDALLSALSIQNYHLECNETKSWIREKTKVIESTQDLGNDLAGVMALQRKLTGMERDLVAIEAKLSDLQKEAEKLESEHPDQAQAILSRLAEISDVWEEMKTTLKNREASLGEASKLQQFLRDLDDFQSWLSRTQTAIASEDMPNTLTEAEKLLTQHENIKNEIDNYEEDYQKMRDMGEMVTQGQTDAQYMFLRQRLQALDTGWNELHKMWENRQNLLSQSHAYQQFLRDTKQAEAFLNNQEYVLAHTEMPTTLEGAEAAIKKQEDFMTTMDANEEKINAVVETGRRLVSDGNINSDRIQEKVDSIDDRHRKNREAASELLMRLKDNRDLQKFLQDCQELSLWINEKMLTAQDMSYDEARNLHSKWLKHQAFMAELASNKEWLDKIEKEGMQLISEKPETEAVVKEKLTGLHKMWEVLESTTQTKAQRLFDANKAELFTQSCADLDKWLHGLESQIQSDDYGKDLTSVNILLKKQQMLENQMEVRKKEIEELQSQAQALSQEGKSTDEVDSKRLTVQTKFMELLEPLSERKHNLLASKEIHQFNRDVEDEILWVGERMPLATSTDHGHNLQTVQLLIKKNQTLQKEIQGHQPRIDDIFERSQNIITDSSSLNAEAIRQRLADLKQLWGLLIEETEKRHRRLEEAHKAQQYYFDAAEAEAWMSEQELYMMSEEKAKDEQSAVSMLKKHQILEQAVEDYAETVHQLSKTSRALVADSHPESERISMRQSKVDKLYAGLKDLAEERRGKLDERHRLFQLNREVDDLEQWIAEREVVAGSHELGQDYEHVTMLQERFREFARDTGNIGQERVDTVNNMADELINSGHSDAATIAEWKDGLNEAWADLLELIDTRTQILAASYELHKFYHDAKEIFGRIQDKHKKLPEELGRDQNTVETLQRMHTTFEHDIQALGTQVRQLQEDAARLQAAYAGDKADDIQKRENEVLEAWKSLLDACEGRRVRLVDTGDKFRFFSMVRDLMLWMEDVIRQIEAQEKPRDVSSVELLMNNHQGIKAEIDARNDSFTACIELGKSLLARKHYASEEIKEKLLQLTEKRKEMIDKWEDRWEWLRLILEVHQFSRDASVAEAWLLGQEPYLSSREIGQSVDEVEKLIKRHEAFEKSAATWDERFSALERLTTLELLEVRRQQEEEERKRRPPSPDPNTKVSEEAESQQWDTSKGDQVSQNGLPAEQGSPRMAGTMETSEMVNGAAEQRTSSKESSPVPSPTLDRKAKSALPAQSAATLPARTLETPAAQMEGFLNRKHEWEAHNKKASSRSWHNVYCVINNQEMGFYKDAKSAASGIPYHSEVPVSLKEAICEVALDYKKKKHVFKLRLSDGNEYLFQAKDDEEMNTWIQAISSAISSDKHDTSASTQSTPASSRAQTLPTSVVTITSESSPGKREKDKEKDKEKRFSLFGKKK

These are yes or no findings as the source states them, for the method shown. For part of these data: In cells and extracts the contact can be indirect. Some entries that bind do so weakly or less than the wild type.

Experiment [1] has as its target T1, mouse filensin (mouse (endogenous in lens)) (UniProt A2AMT1).
T1 sequence: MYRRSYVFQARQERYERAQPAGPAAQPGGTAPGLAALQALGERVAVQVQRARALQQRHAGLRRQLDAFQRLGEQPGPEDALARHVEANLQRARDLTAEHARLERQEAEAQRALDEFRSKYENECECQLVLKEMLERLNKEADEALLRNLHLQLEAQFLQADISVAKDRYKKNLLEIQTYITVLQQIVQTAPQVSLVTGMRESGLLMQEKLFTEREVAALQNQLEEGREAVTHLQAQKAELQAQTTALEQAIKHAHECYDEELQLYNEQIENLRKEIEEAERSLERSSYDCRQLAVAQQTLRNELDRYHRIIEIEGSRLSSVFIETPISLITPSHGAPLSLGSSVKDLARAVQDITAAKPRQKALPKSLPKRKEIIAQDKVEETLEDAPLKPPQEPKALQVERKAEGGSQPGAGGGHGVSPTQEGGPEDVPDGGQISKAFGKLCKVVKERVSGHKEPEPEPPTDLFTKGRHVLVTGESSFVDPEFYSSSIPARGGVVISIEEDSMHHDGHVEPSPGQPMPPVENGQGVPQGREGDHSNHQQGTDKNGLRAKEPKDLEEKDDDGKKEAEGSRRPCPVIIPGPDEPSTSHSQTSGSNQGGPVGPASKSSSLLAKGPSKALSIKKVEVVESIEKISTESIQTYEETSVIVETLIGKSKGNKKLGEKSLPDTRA
As to the kind of experiment: co-IP; wild-type mouse lens extract in modified RIPA buffer (150 mM NaCl, 1% NP-40, 0.5% sodium deoxycholate, 2 mM EGTA, 50 mM Tris-HCl, pH 7.4); rabbit antiserum to filensin on Protein A MicroBeads, 2 h at 4°C; western blot.

For experiment [2], the target named is T2, mouse tropomodulin 1 (Tmod1), endogenous (mouse (endogenous in lens)) (UniProt P49813).
T2 sequence: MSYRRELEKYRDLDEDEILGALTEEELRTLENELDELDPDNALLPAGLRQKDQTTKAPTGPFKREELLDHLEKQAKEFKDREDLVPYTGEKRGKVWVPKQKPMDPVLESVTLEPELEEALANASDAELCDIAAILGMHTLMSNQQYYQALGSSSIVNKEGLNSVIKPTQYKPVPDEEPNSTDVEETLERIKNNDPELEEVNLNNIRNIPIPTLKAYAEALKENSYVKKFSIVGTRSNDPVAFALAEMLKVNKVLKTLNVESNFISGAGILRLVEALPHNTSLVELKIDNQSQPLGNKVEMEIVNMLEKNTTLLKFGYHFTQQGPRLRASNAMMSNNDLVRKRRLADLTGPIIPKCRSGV
As to the kind of experiment: co-IP; wild-type mouse lens extract in modified RIPA buffer (150 mM NaCl, 1% NP-40, 0.5% sodium deoxycholate, 2 mM EGTA, 50 mM Tris-HCl, pH 7.4); affinity-purified rabbit anti-Tmod1 on Protein A MicroBeads, 2 h at 4°C; western blot; preimmune IgG as control. A general note: A western blot detects proteins with antibodies after separation by electrophoresis.

The target in experiment [3] is T3, mouse tropomodulin 1 (Tmod1), endogenous (mouse (endogenous in lens)), P49813.
T3 chain: T2 sequence
The experiment is described as above. Conditions: remark: other sources report otherwise.

Experiment [4] has as its target T4, mouse CP49 (phakinin) (mouse (endogenous in lens)) (UniProt Q6NVD9).
T4 sequence: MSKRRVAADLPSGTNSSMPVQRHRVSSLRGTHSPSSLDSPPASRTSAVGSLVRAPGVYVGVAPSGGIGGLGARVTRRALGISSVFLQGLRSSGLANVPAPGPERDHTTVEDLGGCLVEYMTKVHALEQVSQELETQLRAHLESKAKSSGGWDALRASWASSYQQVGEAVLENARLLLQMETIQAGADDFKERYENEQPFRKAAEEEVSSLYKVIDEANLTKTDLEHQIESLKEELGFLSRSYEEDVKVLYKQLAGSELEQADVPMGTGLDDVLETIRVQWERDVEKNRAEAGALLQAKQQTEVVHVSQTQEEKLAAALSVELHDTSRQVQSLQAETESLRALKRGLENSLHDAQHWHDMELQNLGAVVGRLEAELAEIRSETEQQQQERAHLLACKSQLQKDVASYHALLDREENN
As to the kind of experiment: far-Western, overlay or dot blot; mouse lens extracts (CP49+/+ and CP49-/-) separated by SDS-PAGE and transferred to nitrocellulose; blots incubated overnight at 4°C with 2 µg/ml purified recombinant Tmod in OverWash buffer (80 mM KCl, 2 mM MgCl2, 1 mM EGTA, 0.2% Triton X-100, 20 mM Hepes, pH 7.3) + 2% BSA; bound Tmod detected with antisera to Tmod1 or Tmod4; only the binder purified.

For experiment [5], the target named is T1, mouse filensin (mouse (endogenous in lens)). The description is as above.

“β2-spectrin (mouse lens) (from UniProt Q62261 1-2363)”: the binding result in experiment [1] and in experiment [2] was “binds” throughout.

B1: N-cadherin (mouse lens), P15116 160-906 (protein)
chain: DWVIPPINLPENSRGPFPQELVRIRSDRDKNLSLRYSVTGPGADQPPTGIFIINPISGQLSVTKPLDRELIARFHLRAHAVDINGNQVENPIDIVINVIDMNDNRPEFLHQVWNGSVPEGSKPGTYVMTVTAIDADDPNALNGMLRYRILSQAPSTPSPNMFTINNETGDIITVAAGLDREKVQQYTLIIQATDMEGNPTYGLSNTATAVITVTDVNDNPPEFTAMTFYGEVPENRVDVIVANLTVTDKDQPHTPAWNAAYRISGGDPTGRFAILTDPNSNDGLVTVVKPIDFETNRMFVLTVAAENQVPLAKGIQHPPQSTATVSVTVIDVNENPYFAPNPKIIRQEEGLHAGTMLTTLTAQDPDRYMQQNIRYTKLSDPANWLKIDPVNGQITTIAVLDRESPNVKNNIYNATFLASDNGIPPMSGTGTLQIYLLDINDNAPQVLPQEAETCETPEPNSINITALDYDIDPNAGPFAFDLPLSPVTIKRNWTINRLNGDFAQLNLKIKFLEAGIYEVPIIITDSGNPPKSNISILRVKVCQCDSNGDCTDVDRIVGAGLGTGAIIAILLCIIILLILVLMFVVWMKRRDKERQAKQLLIDPEDDVRDNILKYDEEGGGEEDQDYDLSQLQQPDTVEPDAIKPVGIRRLDERPIHAEPQYPVRSAAPHPGDIGDFINEGLKAADNDPTAPPYDSLLVFDYEGSGSTAGSLSSLNSSSSGGDQDYDYLNDWGPRFKKLADMYGGGDD
Turning to B1, the binding entry in experiment [3] is listed as “no binding”.

B2: mouse CP49 (phakinin) (protein, UniProt Q6NVD9 1-416)
chain: T4 sequence
In the case of B2, the binding result in experiment [1] is reported as “binds”.

B3: purified recombinant human Tmod1 (tropomodulin 1) (protein, UniProt P28289 1-359)
chain: MSYRRELEKYRDLDEDEILGALTEEELRTLENELDELDPDNALLPAGLRQKDQTTKAPTGPFKREELLDHLEKQAKEFKDREDLVPYTGEKRGKVWVPKQKPLDPVLESVTLEPELEEALANASDAELCDIAAILGMHTLMSNQQYYQALSSSSIMNKEGLNSVIKPTQYKPVPDEEPNSTDVEETLERIKNNDPKLEEVNLNNIRNIPIPTLKAYAEALKENSYVKKFSIVGTRSNDPVAYALAEMLKENKVLKTLNVESNFISGAGILRLVEALPYNTSLVEMKIDNQSQPLGNKVEMEIVSMLEKNATLLKFGYHFTQQGPRLRASNAMMNNNDLVRKRRLADLTGPIIPKCRSGV
As to B3, the binding result in experiment [4] and in experiment [5] was “no binding (tested: 2 µg/ml)” in each case.
